According to PubChem BioAssay AID1460 (National Center for Advancing Translational Sciences (NCATS), 2008):
The campaign covered roughly 270,000 compounds. About 5,800 (2.1%) were called active. This list was built around the results that the source calls inconclusive (neither active nor inactive); the mix of calls is not that of the screen. Calls follow the shape of the dose curve; as a rule, active = well fitted inhibition curve with a large enough effect; inconclusive = small, poorly fitted or top-dose-only effect; inactive = flat fitted curve, though single readings scatter. Where the call is inconclusive, the potency comes from a doubtful curve fit.

The compounds below were run against Microtubule-associated protein tau (Homo sapiens) (UniProt P10636) (assay: qHTS for Inhibitors of Tau Fibril Formation, Thioflavin T Binding). Conditions: recombinant tau K18 P301L (four-repeat tau fragment), heparin-induced fibrillization, ThT fluorescence; series mostly up to 57.4 µM; activity, negative = inhibition: at the top concentration.
UniProt P10636, sequence (P10636 whole entry, looked up, the tested form may be a part): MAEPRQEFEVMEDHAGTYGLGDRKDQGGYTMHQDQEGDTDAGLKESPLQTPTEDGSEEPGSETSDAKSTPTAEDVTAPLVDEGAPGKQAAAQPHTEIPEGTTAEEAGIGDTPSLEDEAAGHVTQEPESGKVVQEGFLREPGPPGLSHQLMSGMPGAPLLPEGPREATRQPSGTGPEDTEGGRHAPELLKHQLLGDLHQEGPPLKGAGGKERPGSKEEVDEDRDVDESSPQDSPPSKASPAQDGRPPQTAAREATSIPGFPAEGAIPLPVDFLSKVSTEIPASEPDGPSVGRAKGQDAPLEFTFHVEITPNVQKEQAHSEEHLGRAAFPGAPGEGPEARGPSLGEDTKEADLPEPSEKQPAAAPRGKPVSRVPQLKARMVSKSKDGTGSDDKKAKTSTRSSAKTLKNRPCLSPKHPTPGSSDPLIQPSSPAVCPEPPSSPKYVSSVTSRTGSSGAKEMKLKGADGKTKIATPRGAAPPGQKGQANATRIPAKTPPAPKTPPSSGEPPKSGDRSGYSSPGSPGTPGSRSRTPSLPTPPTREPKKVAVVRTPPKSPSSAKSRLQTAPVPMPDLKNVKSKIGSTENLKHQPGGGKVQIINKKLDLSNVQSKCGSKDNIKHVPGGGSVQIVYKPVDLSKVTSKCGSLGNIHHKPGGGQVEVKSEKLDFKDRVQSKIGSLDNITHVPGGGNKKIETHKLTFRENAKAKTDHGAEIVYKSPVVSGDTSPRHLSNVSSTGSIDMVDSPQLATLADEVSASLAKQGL
How it was run: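 Aggregation was driven by heparin (20 uM final) acting on recombinant tau […] bearing P301L in 100 mM sodium acetate pH 7; fibrils were detected with Thioflavin T.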
% is scaled to controls: 0 for no effect and ±100 for the full control effect; potency is read from the fitted curve at half-maximal effect; tags tell the direction and shape of the fitted curve.
Also: nearly all actives have a fitted effect of over 55% in size.

Structure (SMILES)	Potency	activity, negative = inhibition
O=C(Nc1cnc2ccccn2c1=O)c1ccc(Cl)cc1	inconclusive: 25.1 µM [inhibitor, single point]	
Cc1cccc(-n2ncc3c(NCCCN4CCCC4=O)ncnc32)c1	inconclusive: 25.1 µM [inhibitor, single point]	
Cc1ccc(NC(=O)Nc2cccc([N+](=O)[O-])c2)cc1F	inconclusive: 8.91 µM [inhibitor, partial curve]	
CC1SC(c2cccc(Cl)c2)NC1=O (centres undefined)	inconclusive: 35.5 µM [inhibitor, single point]	
CCc1ccc2nc(NC(=O)CSCc3c(C)noc3C)sc2c1	inconclusive: 39.8 µM [inhibitor, single point]	
Cc1ccccc1C(=O)Nc1nnc(S(=O)(=O)N(C)c2ccc(Cl)cc2)s1	inconclusive: 3.98 µM [inhibitor, full curve, poor fit]	
O=C1C(Cl)=C(NC2CCc3ccccc32)C(=O)c2ncccc21 (centres undefined)	active: 12.6 µM	
COc1ccc(/C=C2\CCCC(C(=O)C(F)(F)F)=C2O)cc1	inconclusive: 17.8 µM [inhibitor, partial curve]	
CCOC(=O)c1ccc(Nc2nnc(C(C)(C)C)c(=O)[nH]2)cc1	inconclusive: 15.8 µM [inhibitor, partial curve]	
Cc1ccc(NC(=O)c2sc3nc(-c4ccncc4)ccc3c2N)cc1	inconclusive: 0.631 µM [inhibitor, full curve]	
CN(C)CCNS(=O)(=O)c1ccc(N2CCN(c3ccc(F)cc3)CC2)c([N+](=O)[O-])c1	inconclusive: 17.8 µM [inhibitor, partial curve]	
Cc1ccc(-c2onc(C)c2C)cc1S(=O)(=O)Nc1cccc(Cl)c1C	inconclusive: 39.8 µM [inhibitor, single point]	
COc1ccc(N2C(=O)CCSC23C(=O)N(Cc2ccc(F)cc2)c2ccccc23)cc1 (centres undefined)	inconclusive: 22.4 µM [inhibitor, single point]	
Fc1cccc2sc(Nc3nc4cc5c(cc4s3)OCO5)nc12	active: 7.94 µM	
COc1ccc(CCCc2n[nH]c(=S)n2C)cc1C		inactive: -11.5%
Cc1nc2ccc(S(=O)(=O)NC(C(=O)N3CCN(c4cccc(Cl)c4)CC3)C(C)C)cc2s1 (centres undefined)	inconclusive: 25.1 µM [inhibitor, single point]	
Cn1c(/C=N/Nc2nc3ccccc3[nH]2)nc2ccccc21	active: 3.98 µM	
NS(=O)(=O)c1ccc(NC2=CC(c3ccc([N+](=O)[O-])cc3)N(c3ccc(S(N)(=O)=O)cc3)C2=O)cc1 (centres undefined)	inconclusive: 10 µM [inhibitor, partial curve]	
Cc1cc(C)c2c(n1)nn1c(N3CCN(c4ccccn4)CC3)cc(C)nc21	inconclusive: 10 µM [inhibitor, partial curve]	
O=S(=O)(c1ccc(Br)cc1)c1nnn2c1nc(NCCc1ccccc1)c1sccc12	inconclusive: 35.5 µM [activator, single point]	
CCN1CCN(C(=O)c2ccc3c(c2)c(C)c(C)n3Cc2ccccc2)CC1		inactive: -9.32%
CSc1nc2ccc(NS(=O)(=O)c3c(Cl)cccc3Cl)cc2s1	inconclusive: 3.98 µM [inhibitor, full curve]	

Structure (SMILES)	Potency	activity, negative = inhibition
Cc1ccc(-c2nc3ccccn3c2Nc2ccccc2)o1	inconclusive: 15.8 µM [inhibitor, partial curve]	
COc1ccc(C([O-])=Nc2ccc[n+](-c3nc4ccccc4nc3NS(=O)(=O)c3ccccc3)c2)cc1	inconclusive: 11.2 µM [inhibitor, partial curve, poor fit]	
Cc1cc(C)cc(NC(=O)CCc2c(C)nc3c(c2C)c(=O)n(C)c(=O)n3C)c1	inconclusive: 0.0631 µM [inhibitor, full curve, poor fit]	
CCc1ccc(-n2nc(CO)c(C(=O)NCc3cccnc3)n2)cc1		inactive: -10.2%
CCn1c(N2CCN(C(=O)C34CC5CC(CC(C5)C3)C4)CC2)nc2ccccc21	inconclusive: 39.8 µM [inhibitor, partial curve]	
Cc1ccc(NC(=O)c2ccc(OCC3CCCO3)cc2)c(C)c1 (centres undefined)	inconclusive: 17.8 µM [inhibitor, partial curve]	
COc1ccc(-c2ccc(SCC(=O)NCc3ccco3)nn2)cc1OC	inconclusive: 28.2 µM [inhibitor, single point]	
O=C(Nc1ccc(-c2nc3cc(NC(=O)c4ccc(Cl)cc4)ccc3o2)cc1)c1ccc(Cl)cc1	inconclusive: 3.16 µM [inhibitor, partial curve]	
COC(=O)c1ccc(-c2nc(-c3ccc(OC)c(OC)c3)no2)cc1	inconclusive: 1.12 µM [inhibitor, full curve]	
Cc1ccc(-c2nn(C)c(=O)c3ccccc23)cc1S(=O)(=O)NCCCN(C)C		inactive: -3.12%
CCOC(=O)C(NC(=O)CC)(Nc1ccccc1OC)C(F)(F)F (centres undefined)	inconclusive: 39.8 µM [inhibitor, single point]	
Cc1ccc2occ(CC(=O)Nc3ccc(Cl)c(C(F)(F)F)c3)c2c1		inactive: -0.39%
CCOC(=O)c1ccc(NC(=O)c2nc[nH]c2C(=O)N[C@@H](Cc2ccccc2)C(=O)OC(C)(C)C)cc1	inconclusive: 39.8 µM [activator, single point]	
COC(=O)c1cc2c(C)[nH]c(C)c2cc(C(=O)OC)c1=O	inconclusive: 28.2 µM [inhibitor, single point]	
CCOC(=O)C1=C(CC)Nc2ccccc2N/C1=N\S(=O)(=O)c1cc(Br)ccc1Br	inconclusive: 14.1 µM [inhibitor, partial curve]	
CCOCCCn1c(=N)c(C(=O)NC(C)c2ccccc2)cc2c(=O)n3cccc(C)c3nc21 (centres undefined)		inactive: -6.86%
CCC(CC)C(=O)Nc1nnc(S(=O)(=O)N2c3ccccc3CC2C)s1 (centres undefined)	active: 14.1 µM	
COc1ccc(NC(=O)Nc2sc(NS(=O)(=O)c3ccccc3)nc2C)cc1	inconclusive: 20 µM [inhibitor, single point]	
C=CCNc1nc(N)c([N+](=O)[O-])c(NCCO)n1		inactive: -6.13%
Clc1cccc(CSc2nnc(-c3ccccn3)n2Cc2ccco2)c1	inconclusive: 39.8 µM [inhibitor, single point]	
O=C(N/N=C/c1ccc2nccnc2c1)c1ccccc1O	inconclusive: 14.1 µM [inhibitor, partial curve, poor fit]	
CC1CCN(S(=O)(=O)c2cc(C(=O)NCc3ccccc3)n(C)c2)CC1		inactive: 3.34%

Structure (SMILES)	Potency	activity, negative = inhibition
COc1cc2ncc3c(-c4ccccc4)nn(CC(=O)NC4CCCCC4)c3c2cc1OC	inconclusive: 20 µM [inhibitor, single point]	
N#Cc1c(-c2ccccc2)c(-c2ccccc2)nn(CC(=O)NNC(=O)Nc2ccc(Cl)cc2)c1=O	inconclusive: 44.7 µM [inhibitor, single point]	
Cc1c(Cl)cccc1NS(=O)(=O)c1ccc(NS(=O)(=O)c2ccc3c(c2)OCCO3)cc1	inconclusive: 39.8 µM [activator, single point]	
COc1ccccc1CNC(=O)c1ccc(-n2c(C)cc3c2CCCC3)cc1		inactive: -16.2%
Cc1sc(NC(=S)Nc2ccc(F)cc2)c(C(N)=O)c1C	inconclusive: 14.1 µM [inhibitor, partial curve]	
O=C(c1ccccc1F)N1c2nc(-c3ccco3)nn2C2(CCCCC2)[C@@H]2CCCC[C@@H]21		inactive: -5.87%
COc1ccc(/C=C/C(=O)N/C(=C\c2ccco2)C(=O)NCCc2nc3ccccc3[nH]2)cc1	inconclusive: 31.6 µM [inhibitor, single point]	
O=C(Nc1ccc(Nc2ccncc2)cc1)c1ccc(Nc2ccnc3ccc([N+](=O)[O-])cc23)cc1	inconclusive: 0.178 µM [inhibitor, full curve]	
C#Cc1ccc([C@@H]2C=C(C(=O)N3CCN(Cc4ccccc4)CC3)O[C@H](OCCCCO)C2)cc1	inconclusive: 28.2 µM [inhibitor, single point]	
COc1ccccc1N(C)S(=O)(=O)c1ccc(C(=O)Nc2ccc(N3CCOCC3)cc2)cc1	inconclusive: 31.6 µM [inhibitor, partial curve]	
COc1ccc(-c2nc3n(c2C)Cc2ccccc2-3)cc1	inconclusive: 8.91 µM [inhibitor, partial curve]	
O=C(CCN1CCN(CC(=O)Nc2ccccc2Cl)CC1)Nc1ccccc1F		inactive: -11.9%
C[n+]1nc(Nc2cccc3ccccc23)sc1-c1ccc(C(=O)O)cc1	inconclusive: 22.4 µM [inhibitor, single point]	
CCCC[C@@H]1C[C@H]1[C@@H](NP(=O)(c1ccccc1)c1ccccc1)c1ccccc1OC	inconclusive: 17.8 µM [inhibitor, partial curve]	
CCOC(=O)CSc1nc(-c2ccc3c(c2)OCO3)ccc1C#N	inconclusive: 3.16 µM [inhibitor, full curve]	
CSc1nc(=S)cc(C)[nH]1	inconclusive: 31.6 µM [inhibitor, single point]	
CCC(=O)N/N=C/c1ccc(-c2ccc([N+](=O)[O-])cc2)o1	active: 7.94 µM	
O=C1CN(C(=O)COc2ccc(Cl)cc2)C(c2ccc(F)cc2)c2cc(Cl)ccc2N1 (centres undefined)	inconclusive: 20 µM [inhibitor, single point]	
CC(C)CCN1CCN(C2CCN(c3ccccc3)CC2)CC1CCO (centres undefined)	inconclusive: 28.2 µM [inhibitor, single point]	
COCc1[nH]nc2c1C(c1sccc1C)C(C#N)=C(N)O2 (centres undefined)	inconclusive: 44.7 µM [inhibitor, single point]	
